Laboratory results taken from article PMC5343593.
These are yes or no findings as the source states them, for the method shown. Binding seen in cells or lysates may run through a third protein. Some entries that bind do so weakly or less than the wild type. For some assays here: Tags and fused reporters may be left off the sequences shown.

Protein sequences, listed by entry. Tags and fused reporters are not part of them.
UniProt Q63HN8: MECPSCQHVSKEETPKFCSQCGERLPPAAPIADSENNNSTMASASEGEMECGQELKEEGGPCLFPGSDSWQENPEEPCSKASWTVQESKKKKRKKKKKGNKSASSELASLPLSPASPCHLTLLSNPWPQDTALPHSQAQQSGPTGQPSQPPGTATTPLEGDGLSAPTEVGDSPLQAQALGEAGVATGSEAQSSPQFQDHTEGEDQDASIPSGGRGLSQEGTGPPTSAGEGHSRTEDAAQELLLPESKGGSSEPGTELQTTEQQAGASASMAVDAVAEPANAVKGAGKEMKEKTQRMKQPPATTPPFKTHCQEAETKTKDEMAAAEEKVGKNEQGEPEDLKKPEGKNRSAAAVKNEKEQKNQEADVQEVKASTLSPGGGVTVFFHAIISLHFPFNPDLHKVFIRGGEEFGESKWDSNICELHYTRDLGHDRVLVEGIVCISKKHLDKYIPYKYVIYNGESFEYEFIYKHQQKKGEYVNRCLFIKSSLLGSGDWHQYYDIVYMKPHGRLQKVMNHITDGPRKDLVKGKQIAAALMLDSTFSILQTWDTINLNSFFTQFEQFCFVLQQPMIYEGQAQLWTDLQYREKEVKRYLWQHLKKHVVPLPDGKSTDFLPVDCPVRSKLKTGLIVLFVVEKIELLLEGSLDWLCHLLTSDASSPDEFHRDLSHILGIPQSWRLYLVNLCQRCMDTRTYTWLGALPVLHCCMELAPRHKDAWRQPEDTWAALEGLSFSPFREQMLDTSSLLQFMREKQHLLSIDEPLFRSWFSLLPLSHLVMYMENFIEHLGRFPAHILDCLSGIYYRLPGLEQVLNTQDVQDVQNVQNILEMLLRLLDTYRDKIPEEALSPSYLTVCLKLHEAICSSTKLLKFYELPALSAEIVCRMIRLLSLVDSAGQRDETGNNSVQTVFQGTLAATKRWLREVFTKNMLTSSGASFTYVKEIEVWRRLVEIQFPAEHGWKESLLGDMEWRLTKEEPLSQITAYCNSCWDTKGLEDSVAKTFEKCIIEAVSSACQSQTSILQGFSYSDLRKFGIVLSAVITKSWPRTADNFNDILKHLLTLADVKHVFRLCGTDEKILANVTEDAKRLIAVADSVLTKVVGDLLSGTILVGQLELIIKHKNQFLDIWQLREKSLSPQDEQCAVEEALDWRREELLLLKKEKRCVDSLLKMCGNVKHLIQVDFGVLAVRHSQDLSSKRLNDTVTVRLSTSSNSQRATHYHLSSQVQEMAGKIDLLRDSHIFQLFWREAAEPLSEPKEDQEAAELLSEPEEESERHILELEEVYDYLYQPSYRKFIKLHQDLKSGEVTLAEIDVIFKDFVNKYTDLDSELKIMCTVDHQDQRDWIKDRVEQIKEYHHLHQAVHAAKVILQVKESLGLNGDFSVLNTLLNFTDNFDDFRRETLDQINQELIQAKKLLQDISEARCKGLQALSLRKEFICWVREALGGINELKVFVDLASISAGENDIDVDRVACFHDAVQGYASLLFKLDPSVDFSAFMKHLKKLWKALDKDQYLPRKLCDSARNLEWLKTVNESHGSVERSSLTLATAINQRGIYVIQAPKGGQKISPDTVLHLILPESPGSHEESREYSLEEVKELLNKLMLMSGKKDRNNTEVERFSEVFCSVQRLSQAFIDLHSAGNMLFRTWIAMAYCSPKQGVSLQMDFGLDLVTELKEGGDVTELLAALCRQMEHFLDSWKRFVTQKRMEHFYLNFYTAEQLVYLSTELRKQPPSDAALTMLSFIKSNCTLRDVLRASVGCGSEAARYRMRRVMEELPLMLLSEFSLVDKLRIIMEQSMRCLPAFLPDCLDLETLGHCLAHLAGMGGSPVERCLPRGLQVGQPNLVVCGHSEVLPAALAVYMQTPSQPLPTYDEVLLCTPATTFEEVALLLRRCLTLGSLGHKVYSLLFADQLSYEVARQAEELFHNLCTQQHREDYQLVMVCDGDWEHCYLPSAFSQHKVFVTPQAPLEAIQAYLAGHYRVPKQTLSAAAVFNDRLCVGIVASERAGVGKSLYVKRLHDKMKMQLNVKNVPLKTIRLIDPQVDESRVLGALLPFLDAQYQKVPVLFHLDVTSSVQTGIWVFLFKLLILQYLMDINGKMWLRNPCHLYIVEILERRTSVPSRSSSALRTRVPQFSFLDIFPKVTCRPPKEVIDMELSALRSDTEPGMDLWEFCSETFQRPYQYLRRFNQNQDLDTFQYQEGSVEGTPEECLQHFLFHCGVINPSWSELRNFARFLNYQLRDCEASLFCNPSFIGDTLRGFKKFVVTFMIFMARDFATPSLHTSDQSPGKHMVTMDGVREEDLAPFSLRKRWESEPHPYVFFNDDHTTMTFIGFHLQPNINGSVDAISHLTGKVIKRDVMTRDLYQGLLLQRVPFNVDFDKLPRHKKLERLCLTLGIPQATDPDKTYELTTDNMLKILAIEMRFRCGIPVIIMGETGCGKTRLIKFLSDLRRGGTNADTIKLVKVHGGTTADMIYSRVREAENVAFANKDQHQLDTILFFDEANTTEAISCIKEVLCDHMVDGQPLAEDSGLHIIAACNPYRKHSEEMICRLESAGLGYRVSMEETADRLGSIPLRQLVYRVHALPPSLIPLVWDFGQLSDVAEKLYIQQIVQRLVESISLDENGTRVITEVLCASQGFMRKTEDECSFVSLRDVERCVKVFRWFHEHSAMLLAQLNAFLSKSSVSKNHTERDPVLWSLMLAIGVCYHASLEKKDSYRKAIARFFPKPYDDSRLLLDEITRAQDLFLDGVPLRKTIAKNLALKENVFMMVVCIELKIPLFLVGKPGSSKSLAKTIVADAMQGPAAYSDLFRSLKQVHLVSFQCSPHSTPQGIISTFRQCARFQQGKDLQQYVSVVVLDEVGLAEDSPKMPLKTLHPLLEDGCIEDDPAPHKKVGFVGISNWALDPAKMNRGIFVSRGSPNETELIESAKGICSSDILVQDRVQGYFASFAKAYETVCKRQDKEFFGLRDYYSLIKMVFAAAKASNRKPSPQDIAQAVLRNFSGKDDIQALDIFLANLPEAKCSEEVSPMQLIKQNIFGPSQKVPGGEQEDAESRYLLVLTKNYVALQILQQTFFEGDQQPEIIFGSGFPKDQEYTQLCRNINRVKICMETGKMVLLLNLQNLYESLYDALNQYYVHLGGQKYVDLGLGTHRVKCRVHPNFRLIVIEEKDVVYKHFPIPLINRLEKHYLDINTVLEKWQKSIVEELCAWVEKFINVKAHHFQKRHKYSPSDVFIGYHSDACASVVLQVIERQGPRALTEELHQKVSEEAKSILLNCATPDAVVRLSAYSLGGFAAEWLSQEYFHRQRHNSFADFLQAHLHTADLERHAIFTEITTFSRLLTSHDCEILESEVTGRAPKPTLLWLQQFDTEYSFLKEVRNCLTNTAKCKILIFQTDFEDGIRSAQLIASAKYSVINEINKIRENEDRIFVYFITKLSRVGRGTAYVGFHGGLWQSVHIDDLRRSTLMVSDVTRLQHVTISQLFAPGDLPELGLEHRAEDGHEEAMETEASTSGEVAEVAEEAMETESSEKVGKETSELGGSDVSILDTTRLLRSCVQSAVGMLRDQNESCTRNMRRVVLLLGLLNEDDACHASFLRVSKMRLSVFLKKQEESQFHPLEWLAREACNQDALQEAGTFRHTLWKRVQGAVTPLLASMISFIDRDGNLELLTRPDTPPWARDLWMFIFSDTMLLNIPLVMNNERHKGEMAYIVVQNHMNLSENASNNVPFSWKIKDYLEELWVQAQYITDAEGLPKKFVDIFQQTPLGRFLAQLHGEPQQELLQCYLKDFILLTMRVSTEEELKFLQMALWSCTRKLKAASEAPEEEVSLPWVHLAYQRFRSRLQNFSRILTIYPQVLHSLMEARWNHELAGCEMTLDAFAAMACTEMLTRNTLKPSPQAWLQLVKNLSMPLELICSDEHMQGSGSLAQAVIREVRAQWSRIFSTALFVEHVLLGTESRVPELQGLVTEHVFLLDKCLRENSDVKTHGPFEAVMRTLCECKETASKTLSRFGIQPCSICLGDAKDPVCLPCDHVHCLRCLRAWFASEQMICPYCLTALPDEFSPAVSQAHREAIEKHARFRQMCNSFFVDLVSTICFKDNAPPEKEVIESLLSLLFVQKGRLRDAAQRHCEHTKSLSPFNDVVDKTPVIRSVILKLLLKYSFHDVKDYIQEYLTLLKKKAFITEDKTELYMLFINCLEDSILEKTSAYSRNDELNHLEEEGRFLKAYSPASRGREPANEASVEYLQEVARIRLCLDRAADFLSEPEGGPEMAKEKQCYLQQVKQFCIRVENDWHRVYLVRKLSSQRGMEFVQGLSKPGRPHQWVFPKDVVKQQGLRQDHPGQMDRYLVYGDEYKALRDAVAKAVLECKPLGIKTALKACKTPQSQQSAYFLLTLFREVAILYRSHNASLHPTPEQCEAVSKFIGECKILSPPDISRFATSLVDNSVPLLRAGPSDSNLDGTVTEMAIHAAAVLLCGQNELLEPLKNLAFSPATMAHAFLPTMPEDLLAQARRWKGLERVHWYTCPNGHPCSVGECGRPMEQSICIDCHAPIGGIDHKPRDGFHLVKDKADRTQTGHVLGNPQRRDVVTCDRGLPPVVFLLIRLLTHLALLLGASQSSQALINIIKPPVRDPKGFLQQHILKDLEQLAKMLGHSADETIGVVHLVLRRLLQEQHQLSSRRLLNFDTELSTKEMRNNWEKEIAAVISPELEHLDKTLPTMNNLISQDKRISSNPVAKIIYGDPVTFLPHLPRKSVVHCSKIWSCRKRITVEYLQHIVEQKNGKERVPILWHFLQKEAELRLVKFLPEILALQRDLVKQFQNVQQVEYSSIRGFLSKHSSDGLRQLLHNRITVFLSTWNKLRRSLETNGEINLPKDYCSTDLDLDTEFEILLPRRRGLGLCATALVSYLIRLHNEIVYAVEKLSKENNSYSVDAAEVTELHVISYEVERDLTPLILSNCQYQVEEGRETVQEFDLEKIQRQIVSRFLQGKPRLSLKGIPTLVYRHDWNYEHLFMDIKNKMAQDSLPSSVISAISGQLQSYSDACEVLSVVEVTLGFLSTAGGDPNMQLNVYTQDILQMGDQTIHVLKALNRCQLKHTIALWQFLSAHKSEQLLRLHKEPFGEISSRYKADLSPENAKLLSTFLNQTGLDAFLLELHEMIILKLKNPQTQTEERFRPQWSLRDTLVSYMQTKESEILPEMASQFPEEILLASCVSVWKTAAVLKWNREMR

What was measured:
USP15L ΔN1-3FLAG (human) = target: T1, USP15L ΔN1-3FLAG (human) (UniProt Q9Y4E8); assay: co-IP; FLAG/3FLAG-tagged bait transiently expressed in HEK293T; lysis in HEPES buffer (150 mM NaCl, 20 mM HEPES-NaOH pH 7.4) with digitonin; anti-FLAG M2 agarose beads 1 h; endogenous mysterin detected by immunoblot with anti-mysterin antibody
T1 sequence: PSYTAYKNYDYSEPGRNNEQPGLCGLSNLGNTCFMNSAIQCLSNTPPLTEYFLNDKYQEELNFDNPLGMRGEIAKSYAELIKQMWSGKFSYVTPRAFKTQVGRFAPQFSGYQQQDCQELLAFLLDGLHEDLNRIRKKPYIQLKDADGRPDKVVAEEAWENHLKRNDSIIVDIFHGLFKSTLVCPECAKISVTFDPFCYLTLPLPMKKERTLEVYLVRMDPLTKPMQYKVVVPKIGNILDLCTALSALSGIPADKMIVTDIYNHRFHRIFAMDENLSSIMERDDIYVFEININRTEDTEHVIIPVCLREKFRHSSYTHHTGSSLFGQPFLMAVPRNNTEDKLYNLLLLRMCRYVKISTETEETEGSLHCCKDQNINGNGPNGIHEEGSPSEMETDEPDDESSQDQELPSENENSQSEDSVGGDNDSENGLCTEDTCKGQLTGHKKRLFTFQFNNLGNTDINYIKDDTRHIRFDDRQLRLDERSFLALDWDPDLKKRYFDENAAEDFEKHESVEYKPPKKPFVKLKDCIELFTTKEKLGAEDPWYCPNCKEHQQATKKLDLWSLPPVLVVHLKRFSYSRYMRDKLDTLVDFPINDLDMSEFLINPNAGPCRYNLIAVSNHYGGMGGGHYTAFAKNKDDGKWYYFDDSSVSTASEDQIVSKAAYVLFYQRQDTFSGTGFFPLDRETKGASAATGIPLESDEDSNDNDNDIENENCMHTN

USP15L ΔC2-3FLAG (human) = target: T2, USP15L ΔC2-3FLAG (human) (UniProt Q9Y4E8); assay: as above
T2 sequence: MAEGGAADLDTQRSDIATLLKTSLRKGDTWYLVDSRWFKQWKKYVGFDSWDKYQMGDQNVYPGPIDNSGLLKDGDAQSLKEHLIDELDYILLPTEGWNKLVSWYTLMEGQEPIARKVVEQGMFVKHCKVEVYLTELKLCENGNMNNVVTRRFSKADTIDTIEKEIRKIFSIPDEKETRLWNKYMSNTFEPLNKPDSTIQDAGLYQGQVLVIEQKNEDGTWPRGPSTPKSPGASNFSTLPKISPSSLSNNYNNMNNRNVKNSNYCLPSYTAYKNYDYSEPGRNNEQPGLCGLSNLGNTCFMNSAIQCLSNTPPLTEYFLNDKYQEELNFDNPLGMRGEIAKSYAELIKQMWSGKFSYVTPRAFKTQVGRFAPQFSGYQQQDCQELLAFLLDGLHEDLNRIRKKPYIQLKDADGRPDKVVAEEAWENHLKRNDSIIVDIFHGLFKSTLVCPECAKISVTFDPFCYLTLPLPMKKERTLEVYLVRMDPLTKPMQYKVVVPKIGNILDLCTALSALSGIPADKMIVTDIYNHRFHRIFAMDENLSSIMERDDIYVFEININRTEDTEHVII

USP15L ΔC1-3FLAG (human) = target: T3, USP15L ΔC1-3FLAG (human) (UniProt Q9Y4E8); assay: as above
T3 sequence: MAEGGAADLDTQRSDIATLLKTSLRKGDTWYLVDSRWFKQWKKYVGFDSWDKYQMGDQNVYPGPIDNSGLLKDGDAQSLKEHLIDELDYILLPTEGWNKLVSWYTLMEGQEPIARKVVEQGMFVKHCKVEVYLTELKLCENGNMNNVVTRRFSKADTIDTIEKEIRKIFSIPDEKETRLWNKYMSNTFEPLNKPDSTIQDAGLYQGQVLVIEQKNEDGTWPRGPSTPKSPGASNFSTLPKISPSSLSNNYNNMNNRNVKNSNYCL

[1] = target: LYAR harboring a FLAG epitope tag at its C terminus (human) (UniProt Q9NX58); assay: as above
USP15L ΔN2-3FLAG (human) = target: T4, USP15L ΔN2-3FLAG (human) (UniProt Q9Y4E8); assay: as above
T4 sequence: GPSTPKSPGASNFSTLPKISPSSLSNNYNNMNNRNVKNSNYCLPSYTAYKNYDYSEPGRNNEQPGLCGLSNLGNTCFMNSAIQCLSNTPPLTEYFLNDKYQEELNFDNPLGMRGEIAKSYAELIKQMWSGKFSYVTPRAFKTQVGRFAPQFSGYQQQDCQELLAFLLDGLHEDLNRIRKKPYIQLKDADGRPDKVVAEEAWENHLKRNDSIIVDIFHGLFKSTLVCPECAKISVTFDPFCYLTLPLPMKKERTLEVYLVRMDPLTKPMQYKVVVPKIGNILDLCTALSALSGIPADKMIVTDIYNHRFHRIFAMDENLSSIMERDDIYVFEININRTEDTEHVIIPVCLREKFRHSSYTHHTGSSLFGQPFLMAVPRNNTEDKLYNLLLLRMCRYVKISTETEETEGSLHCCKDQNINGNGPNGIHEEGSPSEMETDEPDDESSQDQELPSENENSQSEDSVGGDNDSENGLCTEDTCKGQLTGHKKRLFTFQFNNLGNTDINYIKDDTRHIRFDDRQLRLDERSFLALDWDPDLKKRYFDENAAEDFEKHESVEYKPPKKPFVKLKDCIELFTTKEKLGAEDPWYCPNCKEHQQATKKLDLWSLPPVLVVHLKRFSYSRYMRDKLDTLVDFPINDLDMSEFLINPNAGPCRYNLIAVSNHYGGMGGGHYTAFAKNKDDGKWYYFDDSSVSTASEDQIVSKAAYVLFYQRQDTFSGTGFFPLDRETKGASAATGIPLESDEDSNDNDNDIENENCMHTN

[2] = target: T5, USP15L-3FLAG (long isoform of USP15 with three tandem FLAG tags at the C-terminus) (human) (UniProt Q9Y4E8); assay: as above
T5 sequence: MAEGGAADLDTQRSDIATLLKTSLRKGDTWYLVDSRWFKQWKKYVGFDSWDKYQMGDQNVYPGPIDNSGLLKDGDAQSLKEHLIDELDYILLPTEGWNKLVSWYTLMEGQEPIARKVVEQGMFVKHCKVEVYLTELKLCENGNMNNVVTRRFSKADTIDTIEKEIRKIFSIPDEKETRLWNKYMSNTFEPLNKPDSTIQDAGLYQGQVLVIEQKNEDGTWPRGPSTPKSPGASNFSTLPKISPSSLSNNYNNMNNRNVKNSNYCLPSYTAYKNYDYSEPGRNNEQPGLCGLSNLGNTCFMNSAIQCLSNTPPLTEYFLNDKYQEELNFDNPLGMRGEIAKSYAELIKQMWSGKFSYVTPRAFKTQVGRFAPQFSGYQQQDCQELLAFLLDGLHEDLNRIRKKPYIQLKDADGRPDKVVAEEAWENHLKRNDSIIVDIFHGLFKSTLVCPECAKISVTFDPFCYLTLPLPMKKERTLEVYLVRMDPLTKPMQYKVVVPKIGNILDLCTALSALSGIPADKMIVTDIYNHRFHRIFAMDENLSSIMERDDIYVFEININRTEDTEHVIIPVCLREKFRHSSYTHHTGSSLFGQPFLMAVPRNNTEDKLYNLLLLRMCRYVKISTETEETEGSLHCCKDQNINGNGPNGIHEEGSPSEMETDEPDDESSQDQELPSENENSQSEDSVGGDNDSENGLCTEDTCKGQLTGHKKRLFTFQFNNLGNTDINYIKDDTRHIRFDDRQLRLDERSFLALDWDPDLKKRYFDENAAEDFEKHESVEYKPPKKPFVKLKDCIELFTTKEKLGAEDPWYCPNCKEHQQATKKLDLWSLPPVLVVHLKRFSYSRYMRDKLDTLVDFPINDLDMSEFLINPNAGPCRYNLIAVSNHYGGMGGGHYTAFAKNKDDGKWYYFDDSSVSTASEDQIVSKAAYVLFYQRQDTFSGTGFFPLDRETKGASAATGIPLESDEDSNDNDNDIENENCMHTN

USP15L ΔN3-3FLAG (human) = target: T6, USP15L ΔN3-3FLAG (human) (UniProt Q9Y4E8); assay: as above
T6 sequence: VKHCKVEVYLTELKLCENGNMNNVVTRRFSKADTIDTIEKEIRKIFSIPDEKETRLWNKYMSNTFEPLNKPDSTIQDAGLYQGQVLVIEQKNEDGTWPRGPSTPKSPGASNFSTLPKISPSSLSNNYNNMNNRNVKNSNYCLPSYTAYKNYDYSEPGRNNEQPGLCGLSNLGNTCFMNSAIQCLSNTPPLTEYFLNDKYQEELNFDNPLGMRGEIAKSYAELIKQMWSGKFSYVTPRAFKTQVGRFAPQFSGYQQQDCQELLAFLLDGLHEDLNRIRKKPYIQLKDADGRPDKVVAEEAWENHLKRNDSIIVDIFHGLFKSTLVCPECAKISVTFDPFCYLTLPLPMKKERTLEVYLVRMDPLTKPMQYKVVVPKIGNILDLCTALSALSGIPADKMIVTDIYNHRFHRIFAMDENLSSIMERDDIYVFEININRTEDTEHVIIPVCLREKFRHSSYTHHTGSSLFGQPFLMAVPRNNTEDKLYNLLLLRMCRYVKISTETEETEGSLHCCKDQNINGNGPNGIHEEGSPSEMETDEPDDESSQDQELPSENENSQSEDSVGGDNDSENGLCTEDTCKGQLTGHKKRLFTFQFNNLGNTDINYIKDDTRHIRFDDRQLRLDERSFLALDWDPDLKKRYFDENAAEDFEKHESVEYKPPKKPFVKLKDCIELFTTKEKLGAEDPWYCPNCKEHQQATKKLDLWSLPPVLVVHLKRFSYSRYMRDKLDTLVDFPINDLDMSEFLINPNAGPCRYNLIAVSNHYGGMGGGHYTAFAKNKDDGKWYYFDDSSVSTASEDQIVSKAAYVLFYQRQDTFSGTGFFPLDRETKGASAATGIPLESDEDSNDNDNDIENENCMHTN

[3] = target: T7, USP15L-Myc (long isoform of USP15 with a Myc epitope tag at the C-terminus) (human) (UniProt Q9Y4E8); assay: co-IP; Myc-tagged USP15L or mutant transiently expressed in HEK293T; digitonin HEPES buffer; anti-Myc antibody and protein G beads; endogenous mysterin detected by immunoblot
T7 sequence: T5 sequence

In the case of “mysterin (moyamoya steno-occlusive disease-associated AAA+ and RING finger protein), endogenous (from UniProt Q63HN8 1-5207)”, the binding (USP15L ΔN1-3FLAG (human)) is reported as “no binding”, the binding (USP15L ΔC2-3FLAG (human)) is reported as “no binding” and the binding (USP15L ΔC1-3FLAG (human)) is reported as “no binding”. The binding [1] was “binds”, the binding (USP15L ΔN2-3FLAG (human)) was “no binding” and the binding [2] was “binds”. For the same substance, the binding (USP15L ΔN3-3FLAG (human)) was “no binding” and the binding [3] was “binds”.
